Measurements: PMC4336329 (PLoS ONE, 2015)
About 2,200 (0.71%) of roughly 310,000 compounds showed an effect of 50% or more. Effects have a minus sign here. Some of the results follow.

These molecules were tested against human ether-à-go-go-related gene (hERG) potassium channel (human, UniProt Q12809) (assay: primary screen, population patch clamp on CHO cells stably expressing hERG).
Sequence of human ether-à-go-go-related gene (hERG) potassium channel (Q12809 whole entry, looked up): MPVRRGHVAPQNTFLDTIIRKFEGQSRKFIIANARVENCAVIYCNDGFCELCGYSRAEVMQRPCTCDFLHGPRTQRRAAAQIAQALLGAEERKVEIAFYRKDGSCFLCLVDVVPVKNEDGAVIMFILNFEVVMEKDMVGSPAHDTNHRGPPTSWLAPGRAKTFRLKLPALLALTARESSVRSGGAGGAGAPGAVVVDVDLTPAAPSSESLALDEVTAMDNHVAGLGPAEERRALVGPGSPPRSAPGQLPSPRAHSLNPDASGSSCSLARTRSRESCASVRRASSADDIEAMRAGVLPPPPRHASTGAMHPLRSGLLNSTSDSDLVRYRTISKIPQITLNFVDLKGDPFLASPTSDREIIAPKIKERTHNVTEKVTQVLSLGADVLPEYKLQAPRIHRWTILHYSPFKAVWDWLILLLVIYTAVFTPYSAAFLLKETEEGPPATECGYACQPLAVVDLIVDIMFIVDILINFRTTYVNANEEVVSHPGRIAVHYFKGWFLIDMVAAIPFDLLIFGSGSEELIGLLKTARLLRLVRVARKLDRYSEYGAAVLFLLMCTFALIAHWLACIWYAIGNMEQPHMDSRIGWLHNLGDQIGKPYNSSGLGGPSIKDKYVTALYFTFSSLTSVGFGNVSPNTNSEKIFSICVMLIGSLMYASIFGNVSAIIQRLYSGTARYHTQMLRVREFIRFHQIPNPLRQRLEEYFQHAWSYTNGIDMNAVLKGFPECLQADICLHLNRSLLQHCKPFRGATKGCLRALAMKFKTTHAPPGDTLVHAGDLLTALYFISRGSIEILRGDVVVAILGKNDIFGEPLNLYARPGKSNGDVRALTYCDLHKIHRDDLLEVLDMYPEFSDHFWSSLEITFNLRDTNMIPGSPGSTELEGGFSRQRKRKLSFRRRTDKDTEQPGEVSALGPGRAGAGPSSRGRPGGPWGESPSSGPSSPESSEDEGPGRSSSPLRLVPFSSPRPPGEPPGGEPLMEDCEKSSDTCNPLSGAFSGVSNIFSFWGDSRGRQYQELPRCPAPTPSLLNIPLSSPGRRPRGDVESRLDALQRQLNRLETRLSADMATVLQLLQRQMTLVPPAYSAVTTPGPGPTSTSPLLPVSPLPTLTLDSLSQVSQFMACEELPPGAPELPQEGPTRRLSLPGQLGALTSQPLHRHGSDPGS

| Compound | hERG current change (%, negative = inhibition) at 1uM |
| --- | --- |
| O=C(NC1CCc2ccccc21)C1CCN(S(=O)(=O)c2ccc(Cl)cc2)CC1 (stereo not shown) | 8.36% |
| CCOC(=O)Cc1c(C)nc2c(-c3ccc(Cl)cc3)c(C)[nH]n2c1=O | 10.9% |
| O=C(NNC(=S)NCCc1ccccc1)c1ccc(Br)s1 | 4.11% |
| CC(NC(=O)NC1CCCCC1)c1ccccc1 (stereo not shown) | 6.96% |
| CC(C)N(Cc1ccccc1)C(=S)Nc1ccc(F)cc1 | 2.98% |
| O=C(CNC(=O)c1ccc2ccccc2c1)NCc1ccccc1F | 0.73% |
| Cn1c(CCC(=O)Nc2ccc(N3CCOCC3)cc2)nc(=O)c2ccccc21 | 15.8% |
| O=C(COC(=O)c1cnccn1)Nc1ccc(Cl)cn1 | 26.4% |
| CC(=O)NC(CC(=O)NC1CCCc2ccccc21)c1ccccc1 (stereo not shown) | 11.3% |
| N/C(=N\OC(=O)COc1ccc(Cl)cc1Cl)c1cccnc1 | 20.3% |
| CNc1nc(-c2ccc(S(=O)(=O)N3CCCCC3)cc2)cs1 | 9.51% |
| CCN(Cc1ccc(OC)c(COC)c1)CC1CCCN(CCc2cccc(OC)c2)C1 (stereo not shown) | 8.68% |
| COc1cc(C(c2c(O)nc(SC)[nH]c2=O)c2c(O)nc(SC)[nH]c2=O)cc(OC)c1OC | 16.4% |
| COc1ccc(NS(=O)(=O)c2cc(NC(=O)c3ccc(C)s3)ccc2N2CCOCC2)cc1 | 9.16% |
| CC(=O)Nc1ccc2c(c1)nc1n2CCSC1 | 11.6% |
| O=C(NCCCN1CCOCC1)c1ccc2c(c1)N(Cc1ccc(Cl)cc1)C(=O)c1ccccc1S2=O (stereo not shown) | -1.98% |
| COc1cccc(OCc2cc(C(=O)NCc3ccccn3)no2)c1 | 8.46% |
| COc1ccc(N2CSC3=C(C#N)C(c4ccc(OC)c(OC)c4)CC(=O)N3C2)c(OC)c1 (stereo not shown) | -5.23% |
| O=C(O)c1cccc(NC(=O)c2cc(NC(=O)c3ccccc3)cc(NC(=O)c3ccccc3)c2)c1 | 13.6% |
| CCOc1cc(C(=O)NCCOC)cc(OCC)c1OCC | 9.5% |
| CCOCCn1c(=O)c2c(nc3n2CCN3c2ccc(CC)cc2)n(C)c1=O | 9.98% |
| O=C(c1ccc(Br)o1)N1CCN(C23CC4CC(CC(C4)C2)C3)CC1 | 1.54% |

| Compound | hERG current change (%, negative = inhibition) at 1uM |
| --- | --- |
| Cc1ccc(C2CC(=O)NC(SCC(=O)Nc3nccs3)=C2C#N)cc1 (stereo not shown) | 7.51% |
| COCCN1CC(=O)N2C(c3cccc(OC)c3)c3[nH]c4ccccc4c3C[C@H]2C1=O (stereo partly shown) | -11.7% |
| COc1ccc(/C(C)=N/NC(=O)CNC(=O)C2COc3ccccc3O2)c(OC)c1 (stereo not shown) | 10.6% |
| C=CCOc1ccc(CN(C)c2ccc(S(=O)(=O)N3CCN(C)CC3)cc2[N+](=O)[O-])cc1 | 4.92% |
| Cc1ccc(S(=O)(=O)/N=C/N(C)C)cc1 | 7.82% |
| COc1cc(-n2c(=O)c3ccccc3n(Cc3cccc(F)c3)c2=O)cc(OC)c1OC | 33.5% |
| COc1ccc(C2=NC(c3ccccc3)CO2)cc1 (stereo not shown) | -0.0278% |
| CCCSc1nc(N2CCOCC2)c2c(c1C#N)CC(C)(C)SC2 | 2.01% |
| CCCCCOC(=O)c1ccc(OC(=O)c2cncc(Br)c2)cc1 | 3.96% |
| Nc1nnc(SCc2ccccc2F)n1-c1ccccc1 | 10.2% |
| CC(NC(=O)NCC1CCCO1)(C(F)(F)F)C(F)(F)F (stereo not shown) | -0.248% |
| O=C(NCCCO)c1ccc2[nH]c3c(c2c1)CCCC3 | 14.9% |
| CC1CCN(c2ccc3nnc(CCC(=O)N4CCCCC4)n3n2)CC1 | 12.9% |
| O=C(Nc1cc(S(=O)(=O)N2CCOCC2)ccc1N1CCOCC1)c1cccs1 | -4.52% |
| O=C(O)C(Sc1ccncn1)c1ccccc1 (stereo not shown) | 14.4% |
| CCN(CCO)Cc1csc2ccc(C(C)(C)C)cc12.Cl | -1.53% |
| CCOC(=O)c1c(NC(C)=O)sc2c(O)cccc12 | 10.1% |
| CCOc1ccc(C(=O)C(C)OC(=O)C2CCN(c3ccc(C(F)(F)F)cn3)CC2)cc1 (stereo not shown) | -3.61% |
| CCCn1c(N2CCN(C(=O)N3CCCCC3)CC2)nc2ccccc21.Cl | 5.94% |
| COc1cc(/C=C2\C(=N)N3N=C(C)SC3=NC2=O)cc(Cl)c1OCCOc1ccc(NC(C)=O)cc1 | 12.2% |
| CCn1cc(C(=O)NCCCOC)c(=O)c2cc(S(=O)(=O)N3CCCC3)ccc21 | 12.3% |
| COc1cc(/C=C/c2nc3ccccc3c(=O)[nH]2)cc(Br)c1O | 20.1% |

| Compound | hERG current change (%, negative = inhibition) at 1uM |
| --- | --- |
| c1ccc(-c2nc(-c3ccc(-c4ccon4)s3)no2)cc1 | 15.8% |
| CCn1c(SCC(=O)NCc2ccc3c(c2)OCO3)nnc1-c1c[nH]c2ccccc12 | 14.9% |
| COc1cc(OC)cc(-c2c(C#Cc3ccsc3)c3cc(-c4ccc5[nH]ccc5c4)ccc3n2C)c1 | 9.5% |
| COCCN1C(=O)N[C@@H](c2cccc(C(F)(F)F)c2)[C@H](C(=O)OC)[C@H]1C | 8.01% |
| CC(C)c1ccc(CN(C(=O)c2cc3ccccc3oc2=O)C2CCS(=O)(=O)C2)cc1 (stereo not shown) | -13% |
| CCN(CC)C(=O)CSc1nc2c(sc(=S)n2-c2ccccc2)c(=O)n1Cc1ccco1 | -86.3% |
| CC(=O)c1nc2ccccc2n1CCc1ccccc1 | 4.84% |
| O=C(NCCCNc1ccc(C(F)(F)F)cc1[N+](=O)[O-])c1ccc(Cl)cc1 | -6.21% |
| O=C(COc1nc2ccccc2nc1N1CCOCC1)NC1CCCCC1 | -5.01% |
| CCOC(=O)C1(C)NC(c2ccco2)C2C(=O)N(c3ccccc3)C(=O)C21 (stereo not shown) | 15.2% |
| CC1C/C(=N\Nc2ccc(S(N)(=O)=O)cc2[N+](=O)[O-])CC(C)(C)C1 (stereo not shown) | 6.5% |
| COc1ccc(C(CNC(=O)CSc2ccc(Br)cc2C)N2CCOCC2)cc1 (stereo not shown) | 5.16% |
| CCOC(=O)c1ccc2c(c1)nc(SCC(=O)c1cc3ccccc3o1)n2CC | 15.3% |
| COc1cccc(C(=O)NN2c3ccccc3CCc3ccccc32)c1 | 10.8% |
| CC(=O)N1CCN2C(=O)C1CCCC(=O)c1cc(C)ccc12 (stereo not shown) | 18.2% |
| CCc1ccc(NS(=O)(=O)c2cccc3nonc23)cc1 | 7.65% |
| Cc1ccc(CNC(=O)c2ccc(OCC(C)C)cc2)n1C | 11.9% |
| CC(=O)Nc1ccc(N(CC(O)Cn2c3ccccc3c3ccccc32)S(=O)(=O)c2ccc(C)cc2)cc1 (stereo not shown) | 5.25% |
| O=C(OCC(=O)N1CCCC1)c1ccco1 | 10.1% |
| COC(=O)c1ccc(NCC(=O)N2CCCCCC2)cc1 | 10.3% |
| Cl.O=C(Cc1ccccc1)OC(COCc1ccccc1)CN1CCOCC1 (stereo not shown) | 6.63% |
| CCOC(=O)Cc1cnc(NC(=O)CSc2nc(C)c(CC)c(=O)[nH]2)s1 | 13.2% |

| Compound | hERG current change (%, negative = inhibition) at 1uM |
| --- | --- |
| C(=N\Nc1nc(N2CCCC2)nc(N2CCCC2)n1)/c1cccnc1 | 14.1% |
| CC1CCc2nc(NC(=O)C3COc4ccccc4O3)sc2C1 (stereo not shown) | 3.02% |
| Cc1cccc(OCC(=O)Nc2ccc3c(c2)nc(CCN2CCN(c4ccccn4)CC2)n3C)c1 | -67% |
| O=C(Nc1ccc2c(c1)OCO2)c1n[nH]c(=O)c2ccccc12 | 11.1% |
| CCOC(=O)C(Cc1ccccc1)c1ccnc2nc(N)nn12 (stereo not shown) | 0.826% |
| COc1cc(CN2CCN(C(=O)c3cccc4ccccc34)CC2)cc(OC)c1OC.O=C(O)C(=O)O | 8.51% |
| ClC(Br)=C(n1cnc2ccccc21)n1cnc2ccccc21 | -3.11% |
| Cc1ccc(-c2nnn(CC(=O)N(C)C3CCCCC3)n2)o1 | 10.9% |
| Cc1ccc2cc(CCNC(=O)C3CCCCC3)c(=O)[nH]c2c1C | 2.85% |
| O=C(NCc1ccc2c(c1)OCO2)c1sccc1Br | 8.52% |
| CCOc1ccc(CC(=O)N/N=C/c2cccnc2)cc1OCC | 12.8% |
| CSC1=NC(C)(C)C=C(/C=C/c2ccc(Cl)cc2)N1 | -5.72% |
| COC(=O)c1[nH]c2cc(OC)ccc2c1NC(=O)CCN1CCCC(C)(C)C1 | -3.05% |
| Cc1noc(C)c1C(=O)N(CC(=O)NC1CCCC1)Cc1ccccc1F | 6.58% |
| CCCCn1c(O)c(/C=C/C=Nc2ccccc2)c(=O)[nH]c1=O | -1.94% |
| N#Cc1c(SCC(=O)Nc2nncs2)sc2c(O)cc(=O)[nH]c12 | 11.7% |
| COc1cc(NC2c3ccccc3C(=O)N2Cc2ccc3c(c2)OCO3)cc(OC)c1 (stereo not shown) | 2.66% |
| COc1ccc(CNC(=O)C2CCN(S(=O)(=O)c3cccc4cccnc34)CC2)cc1 | -5.81% |
| O=C(COC(=O)c1cccc(F)c1)Nc1cccnc1Cl | 5.58% |
| Cc1ccc(Oc2nc(-c3ccccc3)ncc2S(=O)(=O)c2ccc(C)cc2)cc1 | 12.1% |
| Cc1nc2ccccc2c(=O)n1NC(=O)/C=C/c1ccccc1Cl | -51.1% |
| Nc1nc(SCc2ccc(Cl)cc2)ns1 | 3.67% |
